Among the data in article PMC10805704, “VCIP135 associates with both the N- and C-terminal regions of p97 ATPase” (The Journal of Biological Chemistry, 2023) are binding values, retold here.

Amino acid sequences for entries named in this document (tags omitted).
UniProt P46462: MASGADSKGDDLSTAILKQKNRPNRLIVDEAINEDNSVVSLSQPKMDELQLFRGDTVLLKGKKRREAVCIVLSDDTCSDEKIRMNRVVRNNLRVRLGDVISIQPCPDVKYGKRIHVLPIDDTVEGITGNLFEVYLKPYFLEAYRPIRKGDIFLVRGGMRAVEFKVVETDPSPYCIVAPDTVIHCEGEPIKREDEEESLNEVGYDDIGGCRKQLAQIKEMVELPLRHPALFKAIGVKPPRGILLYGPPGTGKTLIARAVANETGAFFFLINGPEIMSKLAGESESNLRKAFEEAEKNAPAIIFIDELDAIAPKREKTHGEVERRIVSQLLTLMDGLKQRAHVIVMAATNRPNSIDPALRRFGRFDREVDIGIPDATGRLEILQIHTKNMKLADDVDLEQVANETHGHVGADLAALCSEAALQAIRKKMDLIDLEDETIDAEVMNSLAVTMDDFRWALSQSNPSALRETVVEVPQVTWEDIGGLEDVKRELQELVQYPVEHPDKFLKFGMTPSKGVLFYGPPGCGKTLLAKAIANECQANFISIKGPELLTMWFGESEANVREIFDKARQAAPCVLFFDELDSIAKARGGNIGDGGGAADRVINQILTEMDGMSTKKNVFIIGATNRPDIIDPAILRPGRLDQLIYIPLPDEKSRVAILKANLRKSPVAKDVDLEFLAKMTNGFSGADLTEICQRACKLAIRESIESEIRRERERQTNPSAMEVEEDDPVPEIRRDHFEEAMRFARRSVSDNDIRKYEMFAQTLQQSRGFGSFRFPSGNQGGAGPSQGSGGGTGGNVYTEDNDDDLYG

Residue numbers refer to the chain shown, from its start. Names and notes keep the numbering of the source. These are yes or no findings as the source states them, for the method shown. Some results given as binding are weak or reduced against the parent protein; the word gives no strength. Where a sequence is shown, tags or fusion partners need not be part of it.

Assay [1] deals with T1, GST-tagged VCIP135(F1024L/L1031P) (rat) (UniProt Q8CF97).
T1 sequence: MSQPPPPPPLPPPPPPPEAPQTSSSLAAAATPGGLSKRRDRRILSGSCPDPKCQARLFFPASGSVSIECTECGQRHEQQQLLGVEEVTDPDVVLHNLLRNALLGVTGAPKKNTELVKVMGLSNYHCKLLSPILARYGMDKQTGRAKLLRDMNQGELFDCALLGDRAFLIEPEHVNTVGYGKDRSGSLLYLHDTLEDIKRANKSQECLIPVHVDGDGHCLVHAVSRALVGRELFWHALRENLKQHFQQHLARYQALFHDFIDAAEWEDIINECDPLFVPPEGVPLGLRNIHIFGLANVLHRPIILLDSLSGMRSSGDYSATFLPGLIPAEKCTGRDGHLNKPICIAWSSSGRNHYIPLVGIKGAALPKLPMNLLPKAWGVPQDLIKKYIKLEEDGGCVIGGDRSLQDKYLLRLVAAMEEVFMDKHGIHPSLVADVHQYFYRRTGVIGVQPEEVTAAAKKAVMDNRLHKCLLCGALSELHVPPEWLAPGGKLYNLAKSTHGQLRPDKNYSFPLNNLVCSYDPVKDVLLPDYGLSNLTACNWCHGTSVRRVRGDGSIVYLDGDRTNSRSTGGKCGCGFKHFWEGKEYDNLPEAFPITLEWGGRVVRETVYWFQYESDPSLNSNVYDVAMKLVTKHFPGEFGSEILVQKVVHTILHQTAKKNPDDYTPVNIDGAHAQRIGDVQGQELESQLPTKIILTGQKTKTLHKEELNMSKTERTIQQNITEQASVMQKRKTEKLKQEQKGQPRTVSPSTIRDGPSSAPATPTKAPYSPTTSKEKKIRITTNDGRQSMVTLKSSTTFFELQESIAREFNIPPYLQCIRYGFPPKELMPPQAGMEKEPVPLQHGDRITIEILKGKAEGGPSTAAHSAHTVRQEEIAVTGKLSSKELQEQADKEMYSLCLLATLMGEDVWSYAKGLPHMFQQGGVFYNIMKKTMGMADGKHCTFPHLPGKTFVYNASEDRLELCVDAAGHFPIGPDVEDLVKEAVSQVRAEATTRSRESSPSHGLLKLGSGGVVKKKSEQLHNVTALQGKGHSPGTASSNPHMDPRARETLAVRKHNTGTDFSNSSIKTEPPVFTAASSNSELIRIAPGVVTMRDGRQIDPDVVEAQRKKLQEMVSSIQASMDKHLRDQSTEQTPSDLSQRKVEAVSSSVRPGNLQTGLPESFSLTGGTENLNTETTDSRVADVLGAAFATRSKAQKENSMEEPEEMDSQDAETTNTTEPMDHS
As to the kind of experiment: pull-down; GST-VCIP135(F1024L/L1031P) (0.90 μg) incubated with His-p97wt (1.2 μg) or His-p97(199-806) (2.0 μg), isolated on glutathione beads, then incubated with His-VCIP135wt (1.0 μg); all in 1 mM AMP-PNP; Western blot with antibodies to GST-tag and His-tag; both purified. A general note: A western blot detects proteins with antibodies after separation by electrophoresis.

Assay [2] has as its target complex of GST-VCIP135(F1024L/L1031P) and His-tagged p97wt, formed beforehand and isolated on glutathione beads (rat | not stated) (UniProt Q8CF97+P46462). The assay is described as above.
The target of assay [3] is GST-VCIP135(F1024L/L1031P) incubated with His-tagged p97(199-806) (p97ΔN) and isolated on glutathione beads (rat | not stated) (UniProt Q8CF97+P46462). The description is as above.
The target of assay [4] is endogenous p97 purified from rat liver cytosol, biotinylated (rat (endogenous in rat liver)) (UniProt P46462). Description: pull-down; endogenous rat liver p97, biotinylated, immobilised on streptavidin beads; His-tagged VCIP135 or its fragments or mutants in solution; 1 mM AMP-PNP (Figs 1A, 5C, 5D: the indicated nucleotide, 1 mM); 20 mM HEPES, 100 mM KCl, 1 mM MgCl2, 1 mM DTT, 0.5% CHAPS, 10% glycerol, pH 7.4; Western blot with antibodies to p97 and His-tag; both purified.

As for “His-tagged p97wt (from UniProt P46462 1-806)”, in assay [1], the binding entry is “binds”.

B1: His-tagged full-length VCIP135 (protein, UniProt Q8CF97 1-1221)
chain: T1 sequence with L1024F, P1031L
As for B1, the binding result is given as “binds” in assay [2] and “no binding (tested: 1.0 μg)” in assay [3].

B2: His-tagged full-length VCIP135(L133S/F1024L/L1031P) (protein, UniProt Q8CF97 1-1221)
chain: T1 sequence with L133S
Turning to B2, in assay [4], the binding entry is given as “no binding (tested: 1.0 μg (p97 on beads, 0.40 μg))”.

B3: His-tagged VCIP135(744-999) (domain or fragment, UniProt Q8CF97 744-999)
chain: TVSPSTIRDGPSSAPATPTKAPYSPTTSKEKKIRITTNDGRQSMVTLKSSTTFFELQESIAREFNIPPYLQCIRYGFPPKELMPPQAGMEKEPVPLQHGDRITIEILKGKAEGGPSTAAHSAHTVRQEEIAVTGKLSSKELQEQADKEMYSLCLLATLMGEDVWSYAKGLPHMFQQGGVFYNIMKKTMGMADGKHCTFPHLPGKTFVYNASEDRLELCVDAAGHFPIGPDVEDLVKEAVSQVRAEATTRSRESSPS
On to B3, for which the binding entry in assay [4] is “no binding (tested: 0.33 μg (p97 on beads, 0.75 μg))”.

B4: His-tagged VCIP135(361-743) (domain or fragment, UniProt Q8CF97 361-743)
chain: KGAALPKLPMNLLPKAWGVPQDLIKKYIKLEEDGGCVIGGDRSLQDKYLLRLVAAMEEVFMDKHGIHPSLVADVHQYFYRRTGVIGVQPEEVTAAAKKAVMDNRLHKCLLCGALSELHVPPEWLAPGGKLYNLAKSTHGQLRPDKNYSFPLNNLVCSYDPVKDVLLPDYGLSNLTACNWCHGTSVRRVRGDGSIVYLDGDRTNSRSTGGKCGCGFKHFWEGKEYDNLPEAFPITLEWGGRVVRETVYWFQYESDPSLNSNVYDVAMKLVTKHFPGEFGSEILVQKVVHTILHQTAKKNPDDYTPVNIDGAHAQRIGDVQGQELESQLPTKIILTGQKTKTLHKEELNMSKTERTIQQNITEQASVMQKRKTEKLKQEQKGQPR
Consider B4, for which the binding entry in assay [4] was “no binding (tested: 0.77 μg (p97 on beads, 0.50 μg))”.

B5: His-tagged VCIP135(1054-1221) (domain or fragment, UniProt Q8CF97 1054-1221)
chain: NTGTDFSNSSIKTEPPVFTAASSNSELIRIAPGVVTMRDGRQIDPDVVEAQRKKLQEMVSSIQASMDKHLRDQSTEQTPSDLSQRKVEAVSSSVRPGNLQTGLPESFSLTGGTENLNTETTDSRVADVLGAAFATRSKAQKENSMEEPEEMDSQDAETTNTTEPMDHS
B5: the binding entry in assay [4] was “no binding (tested: 0.40 μg (p97 on beads, 0.75 μg))”.
